According to US11760795B2, “Monoclonal antibodies to growth and differentiation factor 15 (GDF-15), and uses thereof for treating cancer cachexia and cancer” (JULIUS-MAXIMILIANS-UNIVERSITÄT WÜRZBURG, priority 2014, dated 2023):

What was measured:
[1] = Protein A elution at physiological pH and 10 fold concentration via spin columns, turbidity; assay type: physicochemical; settings: TRIS Buffer at physiological pH, from 0.5 mg/ml
Protocol: FIG. 7: Improved solubility of the chimeric and the humanized antibody at physiological pH.
5 mg of antibody (B1-23, chimeric B1-23=“ChimB1-23”, H1L5) were loaded on Proteus™ protein A columns, eluted and collected in a TRIS Buffer at physiological pH. After elution, the quality of the purified antibodies was assessed by Coomassie Brilliant Blue gel analysis. The concentration of the eluted antibodies was measured photometrically as well as in a Bradford assay (Roti-Quant, Carl Roth, Karlsruhe, Germany). […] The antibodies were then 10 fold concentrated via spin columns (Centricon, MWCO 30). […] All concentrated eluates were then centrifuged for 5 min at 13000 rpm in order to precipitate antibody aggregates. The remaining amount of soluble antibodies was finally determined via Bradford assay from the supernatant.

[2] = target: T1, hrGDF-15 (Homo sapiens, UniProt Q99988); assay: Colorimetric ELISA binding to coated hrGDF-15; settings: serial 1:3 dilution from 333 ng/ml; in comparison to B12
T1 sequence (Q99988 with tags, fused parts or gaps limits assumed): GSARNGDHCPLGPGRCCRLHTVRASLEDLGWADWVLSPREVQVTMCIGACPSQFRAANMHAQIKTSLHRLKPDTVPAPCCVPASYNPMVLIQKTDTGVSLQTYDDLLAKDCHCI
Protocol: Additionally, by using a colorimetric assay, it was confirmed that all anti-GDF-15 antibodies used in the study bound to GDF-15 in a concentration-dependent manner. To determine the binding of B1-23 antibody variants to GDF-15, a […] ELISA experiment was performed. […] Therefore, Maxisorp 96 well plates (Nunc) were coated with hrGDF-15 (25 ng protein per well, 50 μl volume) over night at 4° C. The following day, plates were washed to remove unbound protein (3 times with 150 μl of PBS 0.05% Tween®) and non-specific binding sites were blocked with 150 μl of PBS 1% BSA for 2 hours at room temperature. Again, plates were washed and different variants of B1-23 test antibodies were applied (50 μl volume). To inquire specificity of the antibody binding, endpoint dilution was performed starting from 333 ng/ml and 1:3 serial dilution. As background control, PBS 1% BSA was applied. Following binding for 1 hour at room temperature, wells were washed as described above. As secondary antibody HRP conjugated Anti-human IgG (Life technologies, 1:5000) was applied for 1 hour at room temperature. Wells were washed as described above to remove unbound secondary antibody. […] For analysis, optical density at 450 nm was quantified using the ELISA reader (Tecan Sunrise) and the corresponding Magellan software.

[3] = Study No. 140123: feed consumption of UACC-257 inoculated mice; assay type: in vivo, Balb/c^nu/nu mice
Protocol: (§1) Treatment of cancer-induced weight loss with anti-GDF-15 antibodies. In the underlying animal study No. 140123, 10 Balb/c^nu/nu mice per treatment group were subcutaneously inoculated with 10×10^6 UACC-257 cells per animal in a 1:1 volume ratio with matrigel (100 μl cells+100 μl matrigel). The animals were treated on the same day with the respective antibodies, as indicated below:
In addition to evaluating the mean body weight of the mice, the feed consumption of the mice was evaluated by pairwise comparisons of the study groups (Table 1).

[4] = target: T2, human GDF-15 (Homo sapiens, UniProt Q99988); assay: Kd determination by Surface Acoustic Wave (SAW) gold chip biosensors; assay type: binding
T2 sequence (Q99988 with tags, fused parts or gaps limits assumed): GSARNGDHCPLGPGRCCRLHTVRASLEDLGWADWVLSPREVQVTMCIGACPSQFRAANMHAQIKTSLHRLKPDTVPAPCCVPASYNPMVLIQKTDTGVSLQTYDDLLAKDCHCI
Description: Determination of Kd values of anti-GDF-15 antibodies. The Kd values of different anti-GDF-15 antibodies were compared using Surface Acoustic Wave (SAW) gold chip biosensors technology (SAW Instruments GmbH, Schwertberger Str. 16, D-53177 Bonn, Germany):
The murine antibody (B1-23) as well as the chimeric B1-23 antibody were present in purified form. The H1L5 humanized B1-23 antibody was a serum-free CHO cell culture supernatant.

[5] = Study No. 140123: body weight of UACC-257 inoculated mice (cancer-induced weight loss); assay type: in vivo, Balb/c^nu/nu mice; settings: 38 days
Protocol: FIG. 5: Treatment of cancer cachexia with anti-GDF-15 antibodies. […] The changes of the body weight are depicted in percent as compared to the starting body weight on day 0, for a period of 38 days.
as §1
The study was carried out in a double-blinded manner for the treatment with the antibodies and for the treatment with PBS.

B1: Chimeric B1-23: murine variable domains, human IgG1 constant domains (trastuzumab backbone); heavy chain SEQ ID No: 33, light chain SEQ ID No: 36 (antibody)
heavy: QVKLQQSGPGILQSSQTLSLTCSFSGFSLSTSGMGVSWIRQPSGKGLEWLAHIYWDDDKRYNPTLKSRLTISKDPSRNQVFLKITSVDTADTATYYCARSSYGAMDYWGQGTSVTVSS[in this place human IgG1 constant region]
light: DIVLTQSPKFMSTSVGDRVSVTCKASQNVGTNVAWFLQKPGQSPKALIYSASYRYSGVPDRFTGSGSGTDFTLTISNVQSEDLAEYFCQQYNNFPYTFGGGTKLEIKRTVAAPSVFIFPPSDEQLKSGTASVVCLLNNFYPREAKVQWKVDNALQSGNSQESVTEQDSKDSTYSLSSTLTLSKADYEKHKVYACEVTHQGLSSPVTKSFNRGEC
modifications: amino acid sequence of the heavy chain of the chimeric B1-23 anti-GDF-15 antibody; amino acid sequence of the light chain of the chimeric B1-23 anti-GDF-15 antibody
[1]
  aggregation after 10 fold concentration: no signs of aggregation
[2]
  binding to GDF-15 in ELISA: clearly concentration-dependent binding
[3]; average over day 17-34 intervals, with standard deviation
  Feed consumption per mouse and day: 3.5 ± 0.2 g
[3]; mouse, in vivo
  feed consumption compared with groups which did not receive the anti-GDF-15 antibodies: significantly higher
[4]
  affinity to human GDF-15 relative to murine B1-23: about 2 fold
[5]
  body weight change compared to day 0: increase in body weight
